Patent EP4491631A1 (Anaveon AG, dated 2025)

T1: IL-2R on murine splenocytes (mouse, UniProt P16297 27-539; P34902 23-369)
T1 sequence (looked up) 1: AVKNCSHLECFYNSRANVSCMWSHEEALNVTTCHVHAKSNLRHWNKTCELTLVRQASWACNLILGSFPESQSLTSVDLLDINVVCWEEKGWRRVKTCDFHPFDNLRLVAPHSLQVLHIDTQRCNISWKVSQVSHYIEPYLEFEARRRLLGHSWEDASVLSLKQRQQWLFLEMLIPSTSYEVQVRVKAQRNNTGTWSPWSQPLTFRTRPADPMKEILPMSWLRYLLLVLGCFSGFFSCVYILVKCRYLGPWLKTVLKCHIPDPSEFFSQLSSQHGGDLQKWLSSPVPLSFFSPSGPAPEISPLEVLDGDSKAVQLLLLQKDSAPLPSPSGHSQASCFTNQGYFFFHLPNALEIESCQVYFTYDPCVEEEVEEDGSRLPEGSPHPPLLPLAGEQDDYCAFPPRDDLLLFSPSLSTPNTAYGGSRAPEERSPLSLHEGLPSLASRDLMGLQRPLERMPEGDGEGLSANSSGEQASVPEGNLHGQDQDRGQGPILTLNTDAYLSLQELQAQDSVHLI
T1 sequence (looked up) 2: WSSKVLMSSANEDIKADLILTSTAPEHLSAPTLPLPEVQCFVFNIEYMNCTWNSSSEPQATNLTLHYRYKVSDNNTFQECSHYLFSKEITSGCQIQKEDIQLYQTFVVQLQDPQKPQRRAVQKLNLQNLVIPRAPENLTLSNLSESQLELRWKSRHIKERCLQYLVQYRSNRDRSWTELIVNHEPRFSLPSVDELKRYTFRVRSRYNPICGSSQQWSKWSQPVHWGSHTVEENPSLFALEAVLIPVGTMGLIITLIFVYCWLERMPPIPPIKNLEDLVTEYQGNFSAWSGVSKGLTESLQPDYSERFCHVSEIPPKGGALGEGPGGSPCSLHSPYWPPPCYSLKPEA


Molecular target: T1, IL-2R on murine splenocytes
Test: cell-based or functional assay

Binder | EC50 CD8 cells (pSTAT5) [nM] | EC50 NK cells (pSTAT5) [nM] | EC50 Treg cells (pSTAT5) [nM]
BFC885 (other) heavy: QVQLVESGGGVVQPGRSLRLSCAASGYTFSSYLIEWVRQAPGKGLEWVAVINPGSGGTNYADSVKGRFTISADKSKNTAYLQMNSLRAEDTAVYYCARWRGDGYYAYFDVWGQGTTVTVSSASTKGPSVFPLAPSSKSTSGGTAALGCLVKDYFPEPVTVSWNSGALTSGVHTFPAVLQSSGLYSLSSVVTVPSSSLGTQTYICNVNHKPSNTKVDKRV[gap - human IgG1 Fc with changes] light: EIVLTQSPATLSVSPGERATLSCRASQSVSYGGGGSGGGGSGGGNFHLRPRDLISNINVIVLELKGSETTFMCEYADETATIVEFLNRWITFSQSIISTLTPTSSSTKKTQLQLEHLLLDLQMILNGINNYKNPKLTRMLTFKFYMPKKATELKHLQCLEEELKPLEEVLNLAQSKGGGGSGGGGSGGGGDSYMNWYQQKPGQAPRLLIYAASNLASGIPARFSGSGSGTEFTLTISSLQSEDAAVYYCQQSNEDPYTFGGGTKVEIKRTVAAPSVFIFPPSDEQLKSGTASVVCLLNNFYPREAKVQWKVDNALQSGNSQESVTEQDSKDSTYSLSSTLTLSKADYEKHKVYACEVTHQGLSSPVTKSFNRGEC | 26.4 | 2 | 0.9
EAD406 (other) heavy: EVQLVQSGAEVKKPGESLKISCKGSGYAFTNYLIEWVRQMPGKGLEWMGVINPGSGGTNYNEKFKGQVTISADKSISTAYLQWSSLKASDTAMYYCARWRGEGYYAYFDVWGQGTTVTVSSASTKGPSVFPLAPSSKSTSGGTAALGCLVKDYFPEPVTVSWNSGALTSGVHTFPAVLQSSGLYSLSSVVTVPSSSLGTQTYICNVNHKPSNTKVDKRV[gap - human IgG1 Fc with changes] light: AIRLTQSPSSFSASTGDRVTITCKASQSVDYNFHLRPRDLISNINVIVLELKGSETTFMCEYADETATIVEFLNRWITFSQSIISTLTPTSSSTKKTQLQLEHLLLDLQMILNGINNYKNPKLTRMLTFKFYMPKKATELKHLQCLEEELKPLEEVLNLAQSKGDSYMNWYQQKPGKAPKLLIYAASNLESGVPSRFSGSGSGTDFTLTISSLQSEDFATYYCQQSNEDPYTFGGGTKVEIKRTVAAPSVFIFPPSDEQLKSGTASVVCLLNNFYPREAKVQWKVDNALQSGNSQESVTEQDSKDSTYSLSSTLTLSKADYEKHKVYACEVTHQGLSSPVTKSFNRGEC | 15.7 | 5.2 | 22
XFO227 (other) heavy: EVQLVQSGAEVKKPGESLKISCKGSGYAFTNYLIEWVRQMPGKGLEWMGVINPGSGGTNYNEKFKGQVTISADKSISTAYLQWSSLKASDTAMYYCARWRGEGYYAYFDVWGQGTTVTVSSASTKGPSVFPLAPSSKSTSGGTAALGCLVKDYFPEPVTVSWNSGALTSGVHTFPAVLQSSGLYSLSSVVTVPSSSLGTQTYICNVNHKPSNTKVDKRV[gap - human IgG1 Fc with changes] light: AIRLTQSPSSFSASTGDRVTITCKASQSVDYGGNFHLRPRDLISNINVIVLELKGSETTFMCEYADETATIVEFLNRWITFSQSIISTLTPTSSSTKKTQLQLEHLLLDLQMILNGINNYKNPKLTRMLTFKFYMPKKATELKHLQCLEEELKPLEEVLNLAQSKGGGDSYMNWYQQKPGKAPKLLIYAASNLESGVPSRFSGSGSGTDFTLTISSLQSEDFATYYCQQSNEDPYTFGGGTKVEIKRTVAAPSVFIFPPSDEQLKSGTASVVCLLNNFYPREAKVQWKVDNALQSGNSQESVTEQDSKDSTYSLSSTLTLSKADYEKHKVYACEVTHQGLSSPVTKSFNRGEC | 8 | 2.7 | 10.6
